In article PMC4336329 (PLoS ONE, 2015):
Out of some 310,000 compounds screened, about 14,000 (4.5%) showed an effect of 50% or more. Effects have a minus sign here. The list shows a part of the results.

Biological target: human ether-à-go-go-related gene (hERG) potassium channel (human, UniProt Q12809)
Test: primary screen, population patch clamp on CHO cells stably expressing hERG
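Further: peak tail current of the secondary pulse compared with the same well before compound.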

human ether-à-go-go-related gene (hERG) potassium channel, sequence (Q12809 whole entry, looked up): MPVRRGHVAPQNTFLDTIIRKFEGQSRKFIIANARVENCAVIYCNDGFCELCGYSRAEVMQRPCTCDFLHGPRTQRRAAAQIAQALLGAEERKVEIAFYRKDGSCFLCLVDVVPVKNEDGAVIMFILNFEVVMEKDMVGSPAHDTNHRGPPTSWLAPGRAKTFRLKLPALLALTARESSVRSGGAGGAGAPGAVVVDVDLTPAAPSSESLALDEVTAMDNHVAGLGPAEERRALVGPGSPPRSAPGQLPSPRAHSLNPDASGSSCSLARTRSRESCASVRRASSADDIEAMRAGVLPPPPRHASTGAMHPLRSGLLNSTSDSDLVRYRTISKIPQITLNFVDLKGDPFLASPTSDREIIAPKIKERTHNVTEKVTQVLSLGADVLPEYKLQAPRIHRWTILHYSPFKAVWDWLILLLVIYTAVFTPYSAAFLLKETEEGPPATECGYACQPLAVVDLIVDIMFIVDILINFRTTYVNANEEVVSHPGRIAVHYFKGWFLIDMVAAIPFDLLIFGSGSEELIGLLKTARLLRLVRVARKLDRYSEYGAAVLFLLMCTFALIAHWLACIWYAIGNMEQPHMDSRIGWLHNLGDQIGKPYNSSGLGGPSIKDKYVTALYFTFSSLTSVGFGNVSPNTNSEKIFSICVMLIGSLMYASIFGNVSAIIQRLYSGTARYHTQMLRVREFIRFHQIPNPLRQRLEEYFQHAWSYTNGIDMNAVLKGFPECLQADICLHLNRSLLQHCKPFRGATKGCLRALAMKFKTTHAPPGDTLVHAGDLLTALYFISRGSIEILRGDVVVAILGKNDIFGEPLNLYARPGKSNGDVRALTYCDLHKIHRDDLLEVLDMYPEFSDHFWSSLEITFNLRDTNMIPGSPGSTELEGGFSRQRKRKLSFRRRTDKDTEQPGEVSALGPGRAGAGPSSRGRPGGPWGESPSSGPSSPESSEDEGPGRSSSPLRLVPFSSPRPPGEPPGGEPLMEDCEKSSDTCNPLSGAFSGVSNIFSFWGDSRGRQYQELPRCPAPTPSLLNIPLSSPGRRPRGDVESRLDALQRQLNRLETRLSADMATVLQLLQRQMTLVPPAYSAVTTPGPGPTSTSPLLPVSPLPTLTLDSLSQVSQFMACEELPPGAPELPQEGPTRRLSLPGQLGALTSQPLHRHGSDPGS

Compared with `COC(=O)C1=CN(c2ccc(OC)cc2)C=C(C(=O)OC)C1c1cccc(F)c1`, `COc1cccc(CN(C)C(=O)c2cc(COc3ccc(-n4cncn4)cc3)on2)c1` is lower in “hERG current change (%, negative = inhibition) at 10uM” value: 10.6% for the first, -79.9% for the second.

First: O=C(NCc1ccccc1F)c1ccncc1
Second: O=C(NCc1ccc(Cl)cc1)c1cc(-c2cccs2)on1
The “hERG current change (%, negative = inhibition) at 10uM” value of the first is higher: 12.3% for the first, -4.61% for the second.

Going from `CN1CCN(c2oc(-c3ccco3)nc2S(=O)(=O)c2ccccc2)CC1` to `O=S(=O)(c1ccccc1)N1CCN(C(=S)Nc2ccccc2)CC1`, the “hERG current change (%, negative = inhibition) at 10uM” value rises from -37.9% to 5.75%.

Compared with `COc1ccc(C)cc1NC(=O)CCC(=O)Nc1nnc(C(F)(F)F)s1`, `C=CCN(C(=O)CCC(=O)Nc1cc(C)on1)C(C(=O)NC(C)(C)C)c1cccc(OC)c1OC` (centres unmarked) is lower in “hERG current change (%, negative = inhibition) at 10uM” value: 25.1% for the first, 15.3% for the second.

Going from `O=C(Nc1ccc(F)cc1)C(c1ccccc1)N1CCN(S(=O)(=O)c2c(F)cccc2F)CC1` (centres unmarked) to `O=C(CSc1nc2ccccc2o1)N1CCN(S(=O)(=O)c2ccc3ccccc3c2)CC1`, the “hERG current change (%, negative = inhibition) at 10uM” value rises from -8.26% to 23.5%.

First: CCN(Cc1ccccc1)Cc1nc(CCc2ccccc2)no1
Second: CCOC(=O)CSc1nnc(Cc2ccccc2)n1Cc1ccco1
The “hERG current change (%, negative = inhibition) at 10uM” value of the first is lower: -1.65% for the first, 2.92% for the second.

Compared with `CN(C)C(=O)Oc1ccc[n+](C)c1.[Br-]`, `CCN(CC)S(=O)(=O)c1ccc(Cl)c(NC(C)=O)c1` is higher in “hERG current change (%, negative = inhibition) at 10uM” value: -14.7% for the first, 4.2% for the second.

First: Cc1csc(OCC(=O)Nc2ccc(C)c(C)c2)n1
Second: Cc1ccc(NC(=O)CCC(=O)NNC(=O)COc2ccccc2)cc1C
The “hERG current change (%, negative = inhibition) at 10uM” value of the first is lower: 0.352% for the first, 16.7% for the second.

Compared with `CN(C)NC(=S)NC1CCS(=O)(=O)C1` (centres unmarked), `O=C(COC(=O)CNC(=O)C12CC3CC(CC(C3)C1)C2)NC1CCS(=O)(=O)C1` (centres unmarked) is lower in “hERG current change (%, negative = inhibition) at 10uM” value: 19.1% for the first, -30.5% for the second.

First: COC(=O)c1ccc(NC(=O)CCN2C(=O)C3C4CCC(C4)C3C2=O)cc1 (centres unmarked)
Second: O=C(COc1ccccc1C(=O)NCC1CCCO1)Nc1ccc(Br)cc1 (centres unmarked)
The “hERG current change (%, negative = inhibition) at 10uM” value of the first is higher: -5.16% for the first, -11.6% for the second.

Going from `Cc1cc(C)nc(-n2nc(C)c(C3(O)C(=O)Nc4ccccc43)c2N)n1` (centres unmarked) to `Cc1cc(C)nc(NC2=NCCN2C(=S)Nc2ccc(C)c(C)c2)n1`, the “hERG current change (%, negative = inhibition) at 10uM” value rises from 3.35% to 6.2%.

Compared with `O=C1c2ccccc2C(=O)N1CCc1nc2ccccc2c(=O)n1Cc1ccco1`, `O=C(O)CC(c1ccccc1)N1C(=O)c2ccccc2C1=O` (centres unmarked) is higher in “hERG current change (%, negative = inhibition) at 10uM” value: -61.8% for the first, 0.532% for the second.

First: COc1cc(NC(=O)c2cccc(C)c2)c(OC)cc1NC(=O)CN1CCOCC1
Second: CCOC(=O)C1CCN(C(=O)Nc2ccc(OC)c(OC)c2)CC1
The “hERG current change (%, negative = inhibition) at 10uM” value of the first is lower: -3.88% for the first, 1.86% for the second.

Going from `NC(=S)N=Nc1c(O)n(CCCl)c2ccccc12` to `CCn1c(O)c(N=NC(=O)c2cccs2)c2ccccc21`, the “hERG current change (%, negative = inhibition) at 10uM” value falls from 19.5% to 12.7%.

Compared with `CC(=O)Nc1ccc(CC(=O)N2CCN(Cc3ccccc3)CC2)cc1`, `O=C(CN1CCN(c2ccccc2)CC1)Nc1ccc2c(c1)CCC2` is lower in “hERG current change (%, negative = inhibition) at 10uM” value: 9.01% for the first, -7.68% for the second.

First: Cc1cc(C)n2cc(CSc3ccccn3)nc2n1
Second: Cc1cc(C)n(-c2ccn(Cc3ccc(Cl)cc3Cl)c(=O)n2)n1
The “hERG current change (%, negative = inhibition) at 10uM” value of the first is higher: 13.6% for the first, 5.39% for the second.

Going from `CCCN(CC(=O)Nc1ccccc1C)C(=O)CCCc1c[nH]c2ccccc12` to `CCOc1ccccc1CNC(=O)CCCc1cn(C)c2ccccc12`, the “hERG current change (%, negative = inhibition) at 10uM” value falls from -1.8% to -2.65%.

Compared with `CN(Cc1nc(-c2cccs2)no1)CC1(N2CCOCC2)CCCCC1`, `c1cc(C2CCCCC2)ccc1Oc1nc(N2CCOCC2)nc(N2CCOCC2)n1` is higher in “hERG current change (%, negative = inhibition) at 10uM” value: -24.2% for the first, 4.43% for the second.

Going from `COc1cc(N2CN=c3s/c(=C\c4ccccn4)c(=O)n3C2)cc(OC)c1OC` to `Br.COCCNc1nc2ccccc2n1CC(=O)c1ccc(OC)c(OC)c1`, the “hERG current change (%, negative = inhibition) at 10uM” value rises from -9.45% to -1.21%.

Going from `CCC(C)Nc1nc(-c2c[nH]c3ccccc23)cs1` (centres unmarked) to `O=c1[nH]c2ccccc2c2oc(CCl)nc12`, the “hERG current change (%, negative = inhibition) at 10uM” value rises from -12.9% to 2.65%.

Going from `Cc1ccsc1/C=C(\C#N)C(=O)NCCCN1CCOCC1` to `Cc1ccc(C)c(S(=O)(=O)N2CCCC2CNC(=O)C(=O)NCc2ccccn2)c1` (centres unmarked), the “hERG current change (%, negative = inhibition) at 10uM” value falls from -10.6% to -20%.

First: Cc1ccc(NC2CCCN(C(=O)CCC3=NNC(=O)CC3)C2)cc1C (centres unmarked)
Second: Cc1cc(S(=O)(=O)N2CCCC(C(=O)Nc3ccc(C(=O)O)cc3)C2)ccc1Cl (centres unmarked)
The “hERG current change (%, negative = inhibition) at 10uM” value of the first is lower: -18.3% for the first, 10.2% for the second.

Going from `CC1(C)CC(=O)C=C(c2cccc3c2oc2ccccc23)C1` to `O=c1oc(-c2ccc([N+](=O)[O-])cc2)nc2ccccc12`, the “hERG current change (%, negative = inhibition) at 10uM” value rises from -2.67% to 18.2%.

Compared with `CC1(C)C(=O)Nc2ccccc2N1C(=O)COC(=O)CNS(=O)(=O)c1ccc(F)c(F)c1F`, `CCOC(=O)CNC(=O)N1CCCC(CNS(=O)(=O)Cc2ccccc2)C1` (centres unmarked) is higher in “hERG current change (%, negative = inhibition) at 10uM” value: -6.15% for the first, 9.38% for the second.

Going from `COc1ccccc1NS(=O)(=O)c1ccc(N/N=C/C=C/c2ccccc2[N+](=O)[O-])c([N+](=O)[O-])c1` to `O=[N+]([O-])c1cccc(S(=O)(=O)c2ccc(NCCO)c([N+](=O)[O-])c2)c1`, the “hERG current change (%, negative = inhibition) at 10uM” value falls from 9.59% to -51%.

Going from `Cc1ccc(-c2c3c(nc4sc(C(N)=O)c(N)c24)CCC3)cc1` to `CCOC(=O)c1nnc(-c2ccccc2)nc1NC`, the “hERG current change (%, negative = inhibition) at 10uM” value falls from 17.7% to -4%.

First: COc1ccccc1N1CCN(C(=O)c2cccc(N3C(=O)NC4CC3(C)Oc3ccccc34)c2)CC1 (centres unmarked)
Second: Cc1c(CN2CCC(CO)(CCOc3ccccc3)CC2)c(=O)n(-c2ccccc2)n1C
The “hERG current change (%, negative = inhibition) at 10uM” value of the first is higher: -4.9% for the first, -5.7% for the second.

Going from `Cc1cccc(NC(=S)NC(=O)c2cc(-c3ccccc3)nc3ccccc23)c1` to `O=c1c2cc(Cl)ccc2nc(-c2ccccc2)n1O`, the “hERG current change (%, negative = inhibition) at 10uM” value falls from 15.9% to 15.7%.

Compared with `CCOc1ccc(OCC)c(S(=O)(=O)N2CCC(C)CC2)c1`, `CCOC(=O)C1(CC)NC(c2ccco2)C2C(=O)N(C)C(=O)C21` (centres unmarked) is higher in “hERG current change (%, negative = inhibition) at 10uM” value: -29.4% for the first, 19.7% for the second.

Compared with `Cc1cc(C(=O)CCC(=O)NCC2COc3ccccc3O2)c(C)s1` (centres unmarked), `COC(=O)c1c(C)[nH]c(C(=O)CN2C(=O)NC3(CCOc4ccccc43)C2=O)c1C` (centres unmarked) is higher in “hERG current change (%, negative = inhibition) at 10uM” value: -24.4% for the first, -4.52% for the second.

Going from `O=C(CSc1nnc(-c2cc3ccccc3cc2O)n1Cc1ccco1)N1CCc2ccccc2C1` to `CC(=O)Nc1ccc(NC(=O)CSc2nnc(COc3ccccc3C)n2CC2CCCO2)cc1` (centres unmarked), the “hERG current change (%, negative = inhibition) at 10uM” value rises from 0.619% to 4.2%.

First: COc1ccc(OC)c(Nc2nc(C3CC3)nc3c2nnn3Cc2ccccc2)c1
Second: CCOc1ccc(N/C(N)=N/c2nc(CSc3nnnn3-c3ccccc3)cc(=O)[nH]2)cc1
The “hERG current change (%, negative = inhibition) at 10uM” value of the first is higher: 22% for the first, -4.22% for the second.

First: CCN(CCCNC(=O)Cn1ncc2c([nH]c3ccc(C)cc32)c1=O)c1ccccc1
Second: CCCc1nc2ccccc2c(=O)n1/N=C/c1ccccc1O
The “hERG current change (%, negative = inhibition) at 10uM” value of the first is higher: 19% for the first, 6.95% for the second.

First: COC(=O)C(OC(=O)c1ccccc1)C(C)Br (centres unmarked)
Second: COc1cccc(OCCOc2ccccc2[N+](=O)[O-])c1
The “hERG current change (%, negative = inhibition) at 10uM” value of the first is lower: -16.2% for the first, 8.27% for the second.

Going from `COCCCN1C(=O)C(=O)/C(=C(/O)c2ccc(OC)cc2C)C1c1cccnc1` (centres unmarked) to `COc1cc(OC)cc(C(=O)NCC(=O)OCC(=O)c2cc(C)n(Cc3ccco3)c2C)c1`, the “hERG current change (%, negative = inhibition) at 10uM” value falls from 4.23% to 2.97%.

First: O=C(O)CN(c1cccc(C(F)(F)F)c1)S(=O)(=O)c1ccccc1
Second: Cl.O=C(Nc1cccc(C(F)(F)F)c1)c1cccnc1NCCO
The “hERG current change (%, negative = inhibition) at 10uM” value of the first is higher: 22.8% for the first, -40.4% for the second.

First: CCOC(=O)C(Cc1ccc(NC(=O)/C(=C/c2ccccc2)NC(=O)c2ccccc2)cc1)N1C(=O)c2ccccc2C1=O (centres unmarked)
Second: CCc1ccc(OCC(=O)N/N=C(\C)c2ccc(OC(F)F)cc2)cc1
The “hERG current change (%, negative = inhibition) at 10uM” value of the first is higher: 13.8% for the first, -2.15% for the second.

Going from `COc1cc(/C=N/NC(=O)CCn2nc(C)cc2C)ccc1O` to `CCCC(=O)Nc1ccc(S(=O)(=O)Nc2cc(C)nc(C)n2)cc1`, the “hERG current change (%, negative = inhibition) at 10uM” value falls from 26.9% to 7.02%.

Going from `O=c1c(-c2ccc3c(c2)OCCO3)coc2cc(O)cc(O)c12` to `COC(=O)c1sccc1NC(=O)c1cc(C)on1`, the “hERG current change (%, negative = inhibition) at 10uM” value rises from -9.23% to 4.01%.

Compared with `O=c1[nH]nc(Sc2ncnc3sccc23)n1CCc1ccccc1`, `CCOCCn1c(COc2ccc(C)cc2)nc2ccccc21` is lower in “hERG current change (%, negative = inhibition) at 10uM” value: -18.3% for the first, -52.6% for the second.

Going from `Cc1cc(C)c(S(=O)(=O)n2c([N+](=O)[O-])cnc2C)c(C)c1` to `COc1nc(N(C)C)nc(N(C#N)S(=O)(=O)c2ccc(C)cc2)n1`, the “hERG current change (%, negative = inhibition) at 10uM” value falls from 27.9% to 20.5%.

Going from `CCOC(=O)NC1(NC2CCCCC2)Oc2ccccc2O1` to `COc1cccc2[nH]c(C(=O)NCC3CCCO3)cc12` (centres unmarked), the “hERG current change (%, negative = inhibition) at 10uM” value rises from -4.53% to 13%.

First: O=C(NN1C(=O)C2C(C1=O)C1C=CC2C12CC2)c1ccccc1Cl (centres unmarked)
Second: CCn1c(-c2ccccc2O)n[nH]c1=S
The “hERG current change (%, negative = inhibition) at 10uM” value of the first is lower: 7% for the first, 33.5% for the second.

First: Cc1ccc2c(C(=O)CN3CC(C)CC(C)C3)c(C)[nH]c2c1 (centres unmarked)
Second: Cc1ccc(SCCSc2ncccn2)cc1
The “hERG current change (%, negative = inhibition) at 10uM” value of the first is lower: -51% for the first, -2.38% for the second.

With `CN1CSC(=S)N(C)C1` the “hERG current change (%, negative = inhibition) at 10uM” value was 14.7%.
